Measured values published in patent US20220411372A1, “SMALL-MOLECULE INHIBITORS FOR THE B-CATENIN/B-CELL LYMPHOMA 9 PROTEIN-PROTEIN INTERACTION” (H. Lee Moffitt Cancer Center and Research Institute, Inc., priority 2019, published 2022).

Columns and labels:
[1] = test system: Wnt/β-catenin target genes Axin2, cyclin D1 and LEF1; test: Quantitative real-time PCR of Wnt/β-catenin target genes; assay type: cell-based, human; conditions: 20 μM, SW480 cells, 24 h
Description: Inhibition of Expression of Wnt/β-Catenin Target Genes.
Quantitative Real Time PCR analysis. SW480 cells at 1×10^6/mL were treated with inhibitors at different concentrations for 24 h. […] The threshold cycle (CT) values were normalized to that of internal reference GAPDH. Experiments were performed in triplicate. The primer pairs are shown below

Axin2 and cyclin D1 = test: Western blot of Axin2 and cyclin D1 protein expression; conditions: SW480 cells; β-tubulin internal control not affected; FIG. 2B
TNBC MDA-MB-231 cells = test: Matrigel invasion assay; assay type: cell-based, human; conditions: 20 μM, FIG. 3B
Description: Control, 0.2% DMSO in 10% FBS. Mitomycin (10 μg/mL) was added to inhibit cell proliferation and allow examination of the effects on cell migration. […] Each experiment was performed in duplicate.
Scratch wound healing and Matrigel invasion assays using TNBC MDA-MB-231 cells were conducted.

## CC(C)(Oc1cccc(N2CCC[C@@H](C(=O)N(Cc3ccc(-c4cn[nH]c4)cc3)C3CC3)C2)c1)C(=O)N1CCNCC1.Cl [Compound 37, (R)-4-(2-(3-(3-((4-(1H-pyrazol-4-yl)benzyl)(cyclopropyl)carbamoyl)piperidin-1-yl)phenoxy)-2-methylpropanoyl)piperazin-1-ium chloride]
[1]
  LEF1 transcripts, % of the DMSO-treated control: 54%
  cyclin D1 transcripts, % of the DMSO-treated control: 43%
Axin2 and cyclin D1
  protein expression levels of Axin2 and cyclin D1: significantly decreased in a dose-dependent manner
TNBC MDA-MB-231 cells
  TNBC cell invasion, % of the DMSO-treated control: 13%
